These are yes or no findings as the source states them, for the method shown. For part of these data: Binding seen in cells or lysates may run through a third protein. Some binding calls cover weakened binding; strength is not graded here. For part of these data: Sequences can lack the tags named with a protein.
Each binder was assayed against Hsp90 (endogenous, immunoprecipitated with anti-Hsp82 antibody) (S. cerevisiae (endogenous in yeast cells)) (UniProt P02829) (assay: co-IP; anti-Hsp82 antibody immunoprecipitates Hsp82 from extract of mid-logarithmic yeast cells; blot probed with anti-Myc for Chl1; controls: Δchl1 strain, preimmune sera / rabbit IgG).

binding | Binder
binds | Chl1 with a C-terminal 13MYC tag at the chromosomal locus (protein, UniProt P22516 1-861) MDKKEYSETFYHPYKPYDIQVQLMETVYRVLSEGKKIAILESPTGTGKTLSLICATMTWLRMNKADIFTRMETNIKTNEDDSENLSDDEPDWVIDTYRKSVLQEKVDLLNDYEKHLNEINTTSCKQLKTMCDLDKEHGRYKSVDPLRKKRKGARHLDVSLEEQDFIPRPYESDSENNDTSKSTRGGRISDKDYKLSELNSQIITLLDKIDGKVSRDPNNGDRFDVTNQNPVKIYYASRTYSQLGQFTSQLRLPSFPSSFRDKVPDEKVKYLPLASKKQLCINPKVMKWKTLEAINDACADLRHSKEGCIFYQNTNEWRHCPDTLALRDMIFSEIQDIEDLVPLGKSLGICPYYASREALPIAEVVTLPYQYLLSESTRSSLQINLENSIVIIDEAHNLIETINSIYSSQISLEDLKNCHKGIVTYFNKFKSRLNPGNRVNLLKLNSLLMTLIQFIVKNFKKIGQEIDPNDMFTGSNIDTLNIHKLLRYIKVSKIAYKIDTYNQALKEEESSKNENPIKETHKKSVSSQPLLFKVSQFLYCLTNLTSEGQFFFEKNYSIKYMLLEPSKPFESILNQAKCVVLAGGTMEPMSEFLSNLLPEVPSEDITTLSCNHVIPKENLQTYITNQPELEFTFEKRMSPSLVNNHLFQFFVDLSKAVPKKGGIVAFFPSYQYLAHVIQCWKQNDRFATLNNVRKIFYEAKDGDDILSGYSDSVAEGRGSLLLAIVGGKLSEGINFQDDLCRAVVMVGLPFPNIFSGELIVKRKHLAAKIMKSGGTEEEASRATKEFMENICMKAVNQSVGRAIRHANDYANIYLLDVRYNRPNFRKKLSRWVQDSINSEHTTHQVISSTRKFFSMRSLNSR

What follows are binders tested against Hsp90 (full-length HSP82 in the bait vector pGBDUC1) (S. cerevisiae) (UniProt P02829) (assay: two-hybrid; Hsp90 as bait (pGBDUC1), Chl1 constructs as prey (pGADC1), strain PJ69-4A; HIS3 reporter, serial dilutions spotted on medium lacking uracil, leucine and histidine, scored after 5 days at 30°C).

binding | Binder
binds | chl1-C648 (648 amino acids of Chl1; domains II, III and IV) (domain or fragment, UniProt P22516 214-861) SRDPNNGDRFDVTNQNPVKIYYASRTYSQLGQFTSQLRLPSFPSSFRDKVPDEKVKYLPLASKKQLCINPKVMKWKTLEAINDACADLRHSKEGCIFYQNTNEWRHCPDTLALRDMIFSEIQDIEDLVPLGKSLGICPYYASREALPIAEVVTLPYQYLLSESTRSSLQINLENSIVIIDEAHNLIETINSIYSSQISLEDLKNCHKGIVTYFNKFKSRLNPGNRVNLLKLNSLLMTLIQFIVKNFKKIGQEIDPNDMFTGSNIDTLNIHKLLRYIKVSKIAYKIDTYNQALKEEESSKNENPIKETHKKSVSSQPLLFKVSQFLYCLTNLTSEGQFFFEKNYSIKYMLLEPSKPFESILNQAKCVVLAGGTMEPMSEFLSNLLPEVPSEDITTLSCNHVIPKENLQTYITNQPELEFTFEKRMSPSLVNNHLFQFFVDLSKAVPKKGGIVAFFPSYQYLAHVIQCWKQNDRFATLNNVRKIFYEAKDGDDILSGYSDSVAEGRGSLLLAIVGGKLSEGINFQDDLCRAVVMVGLPFPNIFSGELIVKRKHLAAKIMKSGGTEEEASRATKEFMENICMKAVNQSVGRAIRHANDYANIYLLDVRYNRPNFRKKLSRWVQDSINSEHTTHQVISSTRKFFSMRSLNSR
binds weakly | chl1-C253 (domains III and IV of Chl1) (domain or fragment, UniProt P22516 609-861) SCNHVIPKENLQTYITNQPELEFTFEKRMSPSLVNNHLFQFFVDLSKAVPKKGGIVAFFPSYQYLAHVIQCWKQNDRFATLNNVRKIFYEAKDGDDILSGYSDSVAEGRGSLLLAIVGGKLSEGINFQDDLCRAVVMVGLPFPNIFSGELIVKRKHLAAKIMKSGGTEEEASRATKEFMENICMKAVNQSVGRAIRHANDYANIYLLDVRYNRPNFRKKLSRWVQDSINSEHTTHQVISSTRKFFSMRSLNSR
no binding | chl1-C170 (C-terminal domain of Chl1; domain IV) (domain or fragment, UniProt P22516 692-861) VRKIFYEAKDGDDILSGYSDSVAEGRGSLLLAIVGGKLSEGINFQDDLCRAVVMVGLPFPNIFSGELIVKRKHLAAKIMKSGGTEEEASRATKEFMENICMKAVNQSVGRAIRHANDYANIYLLDVRYNRPNFRKKLSRWVQDSINSEHTTHQVISSTRKFFSMRSLNSR
binds | Chl1 (full-length CHL1 in the prey vector pGADC1) (protein, UniProt P22516 1-861) MDKKEYSETFYHPYKPYDIQVQLMETVYRVLSEGKKIAILESPTGTGKTLSLICATMTWLRMNKADIFTRMETNIKTNEDDSENLSDDEPDWVIDTYRKSVLQEKVDLLNDYEKHLNEINTTSCKQLKTMCDLDKEHGRYKSVDPLRKKRKGARHLDVSLEEQDFIPRPYESDSENNDTSKSTRGGRISDKDYKLSELNSQIITLLDKIDGKVSRDPNNGDRFDVTNQNPVKIYYASRTYSQLGQFTSQLRLPSFPSSFRDKVPDEKVKYLPLASKKQLCINPKVMKWKTLEAINDACADLRHSKEGCIFYQNTNEWRHCPDTLALRDMIFSEIQDIEDLVPLGKSLGICPYYASREALPIAEVVTLPYQYLLSESTRSSLQINLENSIVIIDEAHNLIETINSIYSSQISLEDLKNCHKGIVTYFNKFKSRLNPGNRVNLLKLNSLLMTLIQFIVKNFKKIGQEIDPNDMFTGSNIDTLNIHKLLRYIKVSKIAYKIDTYNQALKEEESSKNENPIKETHKKSVSSQPLLFKVSQFLYCLTNLTSEGQFFFEKNYSIKYMLLEPSKPFESILNQAKCVVLAGGTMEPMSEFLSNLLPEVPSEDITTLSCNHVIPKENLQTYITNQPELEFTFEKRMSPSLVNNHLFQFFVDLSKAVPKKGGIVAFFPSYQYLAHVIQCWKQNDRFATLNNVRKIFYEAKDGDDILSGYSDSVAEGRGSLLLAIVGGKLSEGINFQDDLCRAVVMVGLPFPNIFSGELIVKRKHLAAKIMKSGGTEEEASRATKEFMENICMKAVNQSVGRAIRHANDYANIYLLDVRYNRPNFRKKLSRWVQDSINSEHTTHQVISSTRKFFSMRSLNSR
no binding | chl1-N466 (N-terminal 466 amino acids of Chl1; domains I and II) (domain or fragment, UniProt P22516 1-466) MDKKEYSETFYHPYKPYDIQVQLMETVYRVLSEGKKIAILESPTGTGKTLSLICATMTWLRMNKADIFTRMETNIKTNEDDSENLSDDEPDWVIDTYRKSVLQEKVDLLNDYEKHLNEINTTSCKQLKTMCDLDKEHGRYKSVDPLRKKRKGARHLDVSLEEQDFIPRPYESDSENNDTSKSTRGGRISDKDYKLSELNSQIITLLDKIDGKVSRDPNNGDRFDVTNQNPVKIYYASRTYSQLGQFTSQLRLPSFPSSFRDKVPDEKVKYLPLASKKQLCINPKVMKWKTLEAINDACADLRHSKEGCIFYQNTNEWRHCPDTLALRDMIFSEIQDIEDLVPLGKSLGICPYYASREALPIAEVVTLPYQYLLSESTRSSLQINLENSIVIIDEAHNLIETINSIYSSQISLEDLKNCHKGIVTYFNKFKSRLNPGNRVNLLKLNSLLMTLIQFIVKNFKKIGQEI

Reference: article PMC5990887
